Data published in article PMC10368634.
No constants are given. Whether binding was seen depends on the method and setting. In cells and extracts the contact can be indirect. Some binding calls cover weakened binding; strength is not graded here. Tags and fused reporters may be left off the sequences shown.

Biological target: GSTP1 (glutathione S-transferase pi), endogenous (human (endogenous in MCF-7, HeLa, HepG2 and human breast tissue)), P09211
Assay: native gel or EMSA + cross-linking; Native-page and cross-linking with 0.03125% glutaraldehyde of GSTP1 bound to lactate (Fig. S1E, S1F)
Settings: remark: other sources report otherwise

binding: binds
B1: GSTP1 (glutathione S-transferase pi), endogenous, P09211 1-210 (enzyme)
chain: MPPYTVVYFPVRGRCAALRMLLADQGQSWKEEVVTVETWQEGSLKASCLYGQLPKFQDGDLTLYQSNTILRHLGRTLGLYGKDQQEAALVDMVNDGVEDLRCKYISLIYTNYEAGKDDYVKALPGQLKPFETLLSQNQGGKTFIVGDQISFADYNLLDLLLIHEVLAPGCLDAFPLLSAYVGRLSARPKLKAFLASPEYVNLPINGNGKQ
